From ChEMBL document CHEMBL1201862, “PubChem BioAssay data set” (2004)
Several values for one entry are separate records, joined by “and”; a condition that tells them apart may be missing. Equal values may be shown once.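 48-hour exposure; five concentrations; linearly interpolated endpoints. GI50: concentration for 50% inhibition of growth.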 Activity calls are given as the source filed them. Cut-off read from the data, not from the text of the source: active = GI50 up to about 1.1 µM and inactive = higher.

test system: NCI-H322M; test: NCI-60 cell line screen, 48 h

**Q.** For `N/C(=N\O)N/N=C/c1cc(Br)cc(Br)c1O`, which GI50 is on record?
**A.** inactive: 2.55 µM

**Q.** `O=C(O)C(Cc1cccs1)C(=O)O` was tested. Which GI50 did it give?
**A.** inactive: > 100 µM

**Q.** `CCCN1C(=O)CN(S(=O)(=O)c2ccc(Cl)cc2)C1=O` was tested. Which GI50 did it give?
**A.** inactive: > 100 µM

**Q.** Which GI50 does the source give for `CN(C)C(=S)NC(=S)Nc1ccc2ccccc2c1` here?
**A.** inactive: 12.7 µM

**Q.** For `CCc1nc(N)nc(N)c1-c1ccc(Cl)c(N=[N+]=[N-])c1`, which GI50 is on record?
**A.** inactive: 6.73 µM

**Q.** With `CC1(C2CCC3(C)OC3C2)CO1` (stereo unspecified) as the compound, how does the GI50 read?
**A.** inactive: > 100 µM

**Q.** Which GI50 does the source give for `O=C1/C(=C/c2ccccc2)CCc2ccc([N+](=O)[O-])cc21` here?
**A.** inactive: > 100 µM

**Q.** For `O=C(CC(C(=O)c1ccoc1)c1ccco1)c1ccco1` (stereo unspecified), which GI50 is on record?
**A.** inactive: > 100 µM

**Q.** For `O=c1c2c3c(sc2nc2n1N=CN(c1ccc(F)cc1)C2)CCCC3`, which GI50 is on record?
**A.** inactive: > 100 µM

**Q.** For `CCOC(=O)C(SCCO)C(C(=O)OCC)n1cnc2c(N)ncnc21` (stereo unspecified), which GI50 is on record?
**A.** inactive: 45.4 µM

**Q.** Which GI50 does the source give for `O=C(Nc1ccc(Br)cc1)C(=O)C(C(=O)c1ccc(Cl)c(Cl)c1)C1OC(=O)c2ccccc21` (stereo unspecified) here?
**A.** inactive: 12.8 µM

**Q.** `COC(=O)C(=O)C(C(=O)C(=O)Nc1ccccc1C(N)=O)c1nc2ccc([N+](=O)[O-])cc2nc1O` (stereo unspecified) was tested. Which GI50 did it give?
**A.** inactive: > 100 µM

**Q.** How did the GI50 turn out when `CCOP(=O)(OCC)[C@H](O)c1ccsc1` was run?
**A.** inactive: > 100 µM

**Q.** For `C[C@]12CC[C@H](O)CC1=CC[C@@H]1C2CC[C@]2(C)Nc3c(cnn3-c3ccc(F)cc3)CC12` (stereo partly specified), which GI50 is on record?
**A.** inactive: 33 µM

**Q.** `ClC1=C(Cl)C2OC3C=CCC3OC2C(Cl)=C1Cl` (stereo unspecified) was tested. Which GI50 did it give?
**A.** inactive: > 100 µM

**Q.** For `COC1(OC)c2occc2C(=N)c2ccc(=O)oc21`, which GI50 is on record?
**A.** inactive: > 100 µM

**Q.** For `Cc1cc(C)nc(NC(=S)Nc2ccc(Cl)cc2)c1`, which GI50 is on record?
**A.** inactive: > 100 µM

**Q.** `CCOC(=O)c1c(Sc2ccc([N+](=O)[O-])cc2[N+](=O)[O-])nc2c3ccccc3ccn12` was tested. Which GI50 did it give?
**A.** inactive: > 100 µM

**Q.** With `O=C1CC(O)c2c1csc2Br` (stereo unspecified) as the compound, how does the GI50 read?
**A.** inactive: > 100 µM

**Q.** With `O=C(N/N=C(COc1cccc(Cl)c1)\N=C\c1ccncc1)c1ccncc1` as the compound, how does the GI50 read?
**A.** inactive: > 100 µM

**Q.** `CC1=NN(c2cccc(Cl)c2)C(=N/c2nc3ccccc3s2)/C1=C\C=C\c1ccccc1` was tested. Which GI50 did it give?
**A.** inactive: 37.7 µM

**Q.** For `N/C(=N\Nc1ccc(Cl)cc1)c1cnccn1`, which GI50 is on record?
**A.** inactive: > 100 µM

**Q.** `O=C(CSc1nc2ccc(I)cc2c(=O)n1Cc1ccccc1)Nc1ccc(Br)cc1` was tested. Which GI50 did it give?
**A.** inactive: 26.8 µM

**Q.** How did the GI50 turn out when `O=c1[nH][nH]c(=O)n1Cc1cccc(Cn2c(=O)[nH][nH]c2=O)c1` was run?
**A.** inactive: > 100 µM

**Q.** How did the GI50 turn out when `COc1ccc([Se]c2ccc(OC)cc2OC)c(OC)c1` was run?
**A.** inactive: 51.8 µM

**Q.** For `O=[N+]([O-])c1ccc(Cl)c(C2SCc3nc4ccccc4n32)c1` (stereo unspecified), which GI50 is on record?
**A.** inactive: 38.6 µM

**Q.** Which GI50 does the source give for `CN(C)C(=O)Oc1c(-c2ccccc2)c(=O)n2c3ccccc3n3c(=O)n(C)c(=O)c1c23` here?
**A.** inactive: > 100 µM

**Q.** With `CC(C)C(=O)/C=C/c1ccc(Cl)c(Cl)c1` as the compound, how does the GI50 read?
**A.** inactive: 32.1 µM

**Q.** For `NC1CC(n2ccc(=O)[nH]c2=O)OC1C(O)CO` (stereo unspecified), which GI50 is on record?
**A.** inactive: > 100 µM

**Q.** Which GI50 does the source give for `COC(=O)c1c(C)cccc1C1CN=NC12Cc1ccc(C)c(C)c1C2=O` (stereo unspecified) here?
**A.** inactive: 98.2 µM

**Q.** Which GI50 does the source give for `COC(=O)C1C2CC3C(OC(=O)C31)C2I` (stereo unspecified) here?
**A.** inactive: > 100 µM

**Q.** How did the GI50 turn out when `CCOC(=O)CC1=Nc2ccccc2SC1` was run?
**A.** inactive: 1.98 µM

**Q.** With `COc1ccccc1C12OC(=O)C1(C)Oc1ccccc1C2=O` (stereo unspecified) as the compound, how does the GI50 read?
**A.** inactive: > 100 µM

**Q.** For `CCOC(=O)c1c(NS(=O)(=O)c2ccc(Br)cc2)sc2c1CCCC2`, which GI50 is on record?
**A.** inactive: 7.78 µM

**Q.** With `C=C1C(=O)O[C@@H]2C[C@@]3(C)CCCC(=C)[C@@H]3C[C@H]12.C=C1C(=O)O[C@@H]2C[C@@]3(C)CCC[C@H](C)C3=C[C@H]12` as the compound, how does the GI50 read?
**A.** inactive: 8 µM

**Q.** `COc1ccc(/C=C(\C(=C/c2ccc(OC)cc2)[N+](=O)[O-])[N+](=O)[O-])cc1` was tested. Which GI50 did it give?
**A.** inactive: 16.6 µM

**Q.** With `Cc1ccc(S(=O)(=O)ON=C2CC(c3ccccc3)N(C)C(c3ccccc3)C2)cc1` (stereo unspecified) as the compound, how does the GI50 read?
**A.** inactive: 21.7 µM and inactive: 22.4 µM

**Q.** `O=C(/C=C/c1ccc(Cl)cc1)c1ccccc(=O)c1O` was tested. Which GI50 did it give?
**A.** inactive: 2.23 µM

**Q.** Which GI50 does the source give for `O=C1C(Br)=Cc2c(Cl)sc(Cl)c21` here?
**A.** inactive: 15.8 µM

**Q.** `Cc1ccc(S[C@@H](C)[C@@](O)(C(N)=O)c2ccccc2)cc1` was tested. Which GI50 did it give?
**A.** inactive: > 100 µM

**Q.** For `C=C(C)[C@@]1(O)CCC[C@H]1NC(=O)OC(C)(C)C`, which GI50 is on record?
**A.** inactive: > 100 µM

**Q.** How did the GI50 turn out when `COC1(OC)N=C(N)C2(C#N)/C(=N/N(C)C)CC(C)C12C#N` (stereo unspecified) was run?
**A.** inactive: > 100 µM

**Q.** `Cc1ccc(S(=O)(=O)NCCCSCCN)cc1` was tested. Which GI50 did it give?
**A.** inactive: > 100 µM

**Q.** `N#CCC(=O)N/N=C\C(O)C(O)C(O)C(O)CO` (stereo unspecified) was tested. Which GI50 did it give?
**A.** inactive: > 100 µM

**Q.** Which GI50 does the source give for `CC(=O)/N=C1/N(/C=C2\C(=O)Oc3ccccc3C2=O)C(=O)/C(=C/c2ccccc2Cl)N1C` here?
**A.** inactive: > 100 µM

**Q.** With `CCCCN(CCCC)CC(C(=O)Nc1ccc([N+](=O)[O-])cc1[N+](=O)[O-])/C(C)=N\NC(=O)c1ccncc1` (stereo unspecified) as the compound, how does the GI50 read?
**A.** inactive: > 100 µM
